Source: PubChem BioAssay AID1508642 (National Center for Advancing Translational Sciences (NCATS), 2021)
In all, about 43,000 compounds went through this assay and about 200 (0.47%) were called active. Not shown: some 12% with an inconclusive outcome. The call rests on the fitted dose curve; in most records, active means well fitted cell-killing curve with a large enough effect; inconclusive means small, poorly fitted or top-dose-only effect, or effect the other way; inactive means flat fitted curve, though single readings scatter. The list shows a part of the results.

Assay: Cell viability qHTS assay in S16 Pmp22-F2sN cells; further: nearly all actives have a fitted effect of over 65% in size
Conditions: S16 Pmp22-F2sN Schwann cells (luciferase reporters placed in the Pmp22 gene) viability, CellTiter-Glo, 24 h; series mostly up to 57.5 µM; activity change, negative = cytotoxicity: at the top concentration
How it was run: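 Seed 500-1,000 S16 Pmp22-F2sN cells per well in phenol-red-free DMEM with 10% heat-inactivated FBS; pin-add 23 nL compound; incubate 24 h at 37C; add CellTiter-Glo, wait 15 min protected from light; read luminescence.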
On the % scale 0 is the no-effect control and ±100 the full control effect.

Compound | activity change, negative = cytotoxicity
O=C(NCc1cccc(Cl)c1)c1ccc2c(Cl)c3c(nc2c1)CCCC3 | inactive: -2.08%
COc1cccc(NC(=O)Cn2c(=O)n(CCCCC(=O)NCc3ccc4c(c3)OCO4)c(=O)c3ccccc32)c1 | inactive: 13.4%
O=C(O)COc1ccccc1C1Nc2ccccc2-c2nnc(SCc3ccc(Cl)cc3)nc2O1 (stereo unspecified) | inactive: 6.66%
Cc1ccc(C)c(N2CCN(C(=O)C3CCC(CNS(=O)(=O)c4ccc(Br)s4)CC3)CC2)c1 (stereo unspecified) | inactive: -15.2%
CCOc1ccc(-c2cc(CCCC(=O)NCCc3ccc(OC)c(OC)c3)no2)cc1 | inactive: 1.32%
Oc1cccc(Nc2cc(-c3ccccc3)ncn2)c1 | inactive: 5.53%
CC(C)(C)C(=O)Nc1ccc2nc(SCCOc3ccccc3Cl)sc2c1 | inactive: -0.143%
N#Cc1ccc(NC(=O)c2ccc3c(c2)nnn3C2CCCC2)cc1 | inactive: 29.8%
CCCS(=O)(=O)N1CC(=O)N(c2cc(C)cc(C)c2)C(C)(C(=O)NC2CCCCCC2)C1 (stereo unspecified) | inactive: 12.1%
CCOc1ccccc1C(=O)Nc1cc(-c2nc3cccnc3s2)ccc1C | inactive: -1.04%
CCC(Sc1ncnc2sc3c(c12)CCCC3)C(=O)OCC(C)C (stereo unspecified) | inactive: 6.43%
COc1ccc(Nc2oc(-c3ccc(COc4ccccc4)o3)nc2C#N)cc1 | inactive: 5.68%
CCCCN(Cc1ccco1)C(=O)c1cc2c(s1)-c1c(C)cccc1OC2 | inactive: -29%
CCOC(=O)c1ccccc1NC(=O)c1nn(-c2ccc(C)cc2)c(=O)n(C)c1=O | inactive: 4.82%
CCc1ccccc1NC(=O)Cn1nnc(C(=O)Nc2ccc(OC)c(OC)c2)c1N | inactive: 0.381%
Cc1cc(C)c(S(=O)(=O)N2CCC(N3CCN(Cc4ccc(F)cc4)C(=O)C3=O)CC2)c(C)c1 | inactive: -9.31%
COC(=O)Cn1ccc2cc(S(=O)(=O)N3CCCCC3)ccc21 | inactive: 0.423%
Cc1ccccc1NC(=O)c1ccc(F)c(S(=O)(=O)N2CCc3ccccc3C2)c1 | inactive: 7.54%
Cc1ccc(C(C)C)c(OCCCn2c(=O)oc3ccc(C)cc32)c1 | inactive: 3.2%
Cc1c(NC(=O)C(F)(F)F)ccc2nc3c(=O)n(C)c(=O)n(C)c3nc12 | inactive: 29.6%
CCc1ccccc1NC(=O)c1cnn(-c2ccc(F)cc2)c1C1CCNCC1 | inactive: 0.68%
COc1ccc(-n2ncc(C(=O)NCCCN3CCCCC3)c2C2CCN(C(=O)OC(C)(C)C)CC2)cc1 | inactive: -13.1%
COc1ccc(-c2cc(-c3ccc4c(c3)NC(=O)CO4)nc3c2COc2ccc(C)cc2-3)cc1 | inactive: 17.6%
COc1c(Cl)cc(Cl)cc1/C=C(\C#N)c1nc(-c2ccc(Cl)cc2)cs1 | inactive: 1.34%

Compound | activity change, negative = cytotoxicity
CCOCCCNC(=O)Cn1cc2c(n1)-c1c(oc(C(=O)N3CCCC3)c1C)CC2 | inactive: 3.4%
COc1ccc(-c2ccc(-c3noc(-c4cc(OC)cc(OC)c4)n3)c(OC)n2)cc1 | inactive: -3.71%
CCOc1ccc2c(c1)c(=O)c(C(=O)c1ccc3c(c1)OCO3)cn2Cc1cccc(F)c1 | inactive: -15%
CCOc1ccc(-n2c(C)nc3cc(C(=O)NCc4ccc(C)cc4)ccc32)cc1 | inactive: 0.579%
CC1CCCN(c2nc(-c3ccccc3O)nc3ccccc23)C1 (stereo unspecified) | inactive: 18.6%
O=c1c2c3c(sc2nnn1Cc1ccc(F)cc1)CCCC3 | inactive: -0.561%
Cc1ccc(C(=O)Nc2nnc(S(=O)(=O)N(C)Cc3ccc(F)cc3)s2)cc1 | inactive: -17.7%
Cc1nnc(N2CCN(c3cccc(Cl)c3)CC2)c2c1nnn2Cc1ccc(F)cc1 | inactive: 1.75%
CCc1cccc(NC(=O)CSc2n[nH]c(-c3ccccc3Cl)n2)c1 | inactive: 6.03%
O=C(Nc1ccc2nc(SCCOc3ccccc3Cl)sc2c1)c1ccco1 | inactive: 22.1%
CCOC(=O)C1CCCN(C(=O)Cn2ncc3c(C)n(Cc4ccc(F)cc4)c(C)c3c2=O)C1 (stereo unspecified) | inactive: -13.9%
CCCNC(=O)Cn1ncc2c3ccccc3n(CCC)c2c1=O | inactive: 5.54%
COc1ccc2sc(N(Cc3cccnc3)C(=O)C3COc4ccccc4O3)nc2c1 (stereo unspecified) | inactive: 1.52%
O=S(=O)(c1ccccc1)c1nnn2c1nc(N1CCN(c3ccccc3)CC1)c1cc(Cl)ccc12 | inactive: 5.47%
CCOC(=O)/C(C#N)=C/c1ccc(-c2ccccc2)o1 | inactive: 14.3%
Cn1c(=O)c2nc3ccc(NC(=O)C(F)(F)F)cc3nc2n(C)c1=O | inactive: 13.4%
Cc1ccc2c(c1)C(c1ccccc1)N(C(=O)c1ccc(S(=O)(=O)N3CCCC3)cc1)CC(=O)N2 (stereo unspecified) | inactive: -23.7%
COc1ccc2sc(N(Cc3cccnc3)C(=O)c3cccs3)nc2c1 | inactive: -29.4%
Cc1nc(SCc2ccccc2Cl)c(C#N)c(C)c1C | inactive: -12%
Cc1cc(C)cc(NC(=O)c2sc3nc4n(c(=O)c3c2C)N=C(c2ccc(F)cc2)CS4)c1 | inactive: 0.977%
CCCn1cc(S(=O)(=O)c2ccccc2)c(=O)c2cc(F)c(N3CCCCCC3)cc21 | inactive: -23.3%
O=C(Cn1cc2c(n1)CCCC2)Nc1cc(C(F)(F)F)ccc1Cl | inactive: -4.3%
COC(=O)c1ccccc1NC(=O)CCC(=O)N1CC(C)Sc2ccccc21 (stereo unspecified) | inactive: -3.31%
COC(=O)C(NC(=O)CCc1c(C)nc2cc(-c3cccc(F)c3)nn2c1C)C(C)C (stereo unspecified) | inactive: 13.6%

Compound | activity change, negative = cytotoxicity
Cc1ccc2c(=O)cc(C(=O)Nc3ccc(S(=O)(=O)N4CCCCC4)cc3)oc2c1 | inactive: -1.19%
COc1ccc(NC(=O)Cn2c(SCc3ccc(F)cc3)nc3cccnc32)c(OC)c1 | inactive: -24.1%
COc1cccc(N2CCN(C(=O)c3cc4c(=O)n(Cc5cccnc5)ccc4nc3C)CC2)c1 | inactive: 4.5%
CCOc1ccc(C(=O)Nc2nc(-c3ccc(Br)cc3)ns2)cc1 | inactive: 1.06%
Cc1ccc(NC(=O)CSc2cn(CC(=O)N3CCOCC3)c3ccccc23)cc1Cl | inactive: -22.5%
CCC(Cc1ccccc1)NC(=O)CCS(=O)(=O)c1cc2c(cc1Cl)NC(=O)CO2 (stereo unspecified) | inactive: 0.786%
COc1ccc(NC(=O)C2CCCN(c3cnccn3)C2)c(OC)c1 (stereo unspecified) | inactive: 15.4%
COc1ccccc1N1CCN(C(c2ccc(Cl)cc2)c2nnc(-c3cccc(F)c3)o2)CC1 (stereo unspecified) | inactive: -16.3%
O=C(Nc1ccc(Cl)c(-c2nc3ccccc3o2)c1)c1ccc(-c2cccc([N+](=O)[O-])c2)o1 | inactive: 27.3%
CCOc1ccc(NC(=O)Cn2cc(C(=O)c3ccc(OC)cc3)c(=O)c3cc4c(cc32)OCO4)cc1 | inactive: 25.7%
COc1ccccc1CNC(=O)c1cnc(N(C)C)nc1 | inactive: -0.429%
CCCSc1oc(-c2ccco2)nc1S(=O)(=O)c1ccc(Cl)cc1 | inactive: -1.05%
CCCCOC(=O)c1ccc(OC(=O)c2sc3ncn(Cc4ccccc4Cl)c(=O)c3c2C)cc1 | inactive: -6.04%
COc1ccccc1OCc1nnc(-c2ccccc2)o1 | inactive: 7.38%
O=C(CSc1nc(=O)n(Cc2ccco2)c2c1CCC2)Nc1cccc(F)c1 | inactive: 4.48%
CCOc1ccc(CNCCCSc2nnnn2C)cc1OC | inactive: -2.01%
COc1cccc(CNC(=O)Cc2csc3nc(-c4ccccc4)cn23)c1 | inactive: -3.68%
Cc1ccc(Cl)cc1Nc1sc(C(=O)c2ccc(F)cc2)c(N)c1S(C)(=O)=O | inactive: -8.66%
COc1cc(N2C(=O)CSC23C(=O)N(Cc2cccc(F)c2)c2ccccc23)cc(OC)c1OC (stereo unspecified) | inactive: -2.66%
CCN(CC)CCNC(=O)CN1C(=O)COc2ccc(S(=O)(=O)N3CCOCC3)cc21 | inactive: -2.58%
CCOC(=O)Cn1c(=O)n(CC2CCCO2)c2nc(-c3ccc(OCC)cc3)nc(C(N)=O)c21 (stereo unspecified) | inactive: 13.1%
Cc1cc(Nc2cccc(Cl)c2)nc2ccc(NC(=O)Cc3ccc(Cl)cc3)cc12 | inactive: 9.23%
Cc1ccc(-n2ncc(C(=O)NCc3ccccc3)c2C2CCN(C(=O)OC(C)(C)C)CC2)cc1 | inactive: -16.2%
CCOc1ccccc1NC(=O)Cn1c(=O)n(Cc2ccccc2)c(=O)c2c1c1cc(C)ccc1n2C | inactive: 2.42%

Compound | activity change, negative = cytotoxicity
COc1ccc(CCNC(=O)CN2C(=O)COc3ccc(C)cc32)cc1OC | inactive: -4.71%
CCN(C(=O)Cn1nc(Cc2ccncc2)c2ccccc2c1=O)c1cccc(Cl)c1 | inactive: 17.3%
COc1ccccc1N(CC(=O)N1CCC(C)CC1)S(=O)(=O)c1ccc(C)cc1 | inactive: 8.34%
CCCCN(CC)CCCNC(=O)CN1C(=O)CSc2ccc(S(=O)(=O)N3CCOCC3)cc21 | inactive: 16.3%
Cc1ccc(C(=O)NCc2ccc3c(c2)CCN3C(=O)c2ccc(C)cc2)cc1 | inactive: 9.53%
CCn1nc(C)c(CCN(C)C(=O)Nc2ccc(C)c(Cl)c2)c1C | inactive: 5.86%
COCCCNC(=O)c1c(-c2ccccc2)c(-c2ccccc2)nn(C)c1=O | inactive: 2.08%
COc1cc(NC(=O)c2nn(C)c3c2CS(=O)(=O)c2ccccc2-3)cc(OC)c1 | inactive: -5.41%
O=C(Nc1ccc2nc3n(c(=O)c2c1)CCCCC3)C(=O)Nc1ccccc1F | inactive: 20.1%
CCc1ccc(Cn2c(CNS(=O)(=O)c3ccc([N+](=O)[O-])cc3)nc3cccnc32)cc1 | inactive: -19.2%
Cc1cccc(Nc2nn3c(=O)c4cc5c(cc4nc3s2)OCO5)c1 | inactive: 11.2%
O=C(Nc1ccc(F)cc1F)c1cccc2c1C(=O)N(C1CCCCC1)C2 | inactive: 9.84%
Cc1cccc(CSc2nc3c(c(=O)[nH]2)CCC3)c1 | inactive: 1.52%
COCCNc1ccc(-c2nc(-c3ccncc3)no2)cc1[N+](=O)[O-] | inactive: -2.78%
COc1cc(NC(=O)CSc2nc(-c3cccs3)cc(C(F)(F)F)n2)cc(OC)c1OC | inactive: 1.49%
COc1cccc(-n2c(SCC(=O)N3CCc4ccccc43)nc3c([nH]c4ccccc43)c2=O)c1 | inactive: 17.7%
CCS(=O)(=O)N1CCc2cc(C(=O)N3CCN(c4ccc(OC)cc4)CC3)ccc21 | inactive: 0.243%
COc1ccc(OC)c(S(=O)(=O)N2Cc3ccccc3CC2C(=O)Nc2ccc(C)cc2C)c1 (stereo unspecified) | inactive: 2.34%
COc1ccc(-c2nc(SCC(=O)Nc3ccccc3)c(-c3ccc(F)cc3)[nH]2)cc1OC | inactive: -22.1%
CCc1ccc(C2CC(=O)c3c([nH]c(C(=O)OC4CCC(C)CC4)c3C)C2)cc1 (stereo unspecified) | inactive: 16.1%
CNC(=O)c1ccc2nc(CCc3ccccc3)oc2c1 | inactive: 0.292%
COc1ccc(S(=O)(=O)NCc2cccn2Cc2cccc(C)c2)cc1Cl | inactive: -24.6%
O=C(Cn1c(=O)n(-c2ccccc2)c(=O)c2ccc(C(=O)NCc3ccc4c(c3)OCO4)cc21)Nc1ccc(F)cc1 | inactive: 4.77%
COC(=O)c1ccc(CSc2nc3c([nH]c4ccccc43)c(=O)n2-c2ccc(F)cc2)o1 | inactive: 10.3%
